From PubChem BioAssay AID485344 (National Center for Advancing Translational Sciences (NCATS), 2010) come the findings set out here.

Values joined by “and” are separate entries in the source; they are usually repeats but may differ in a detail not shown here. Identical values can stand only once. Among all 340,000 compounds or so, about 6,900 (2%) were called active. Rule as the data show it: active = inhibition above about 30%; inactive = below that, where a call was filed. The list shows a part of the results, in another mix than the full data. The source gives no active or inactive call for entries shown without one.

UniProt P14416, sequence (P14416 whole entry, looked up): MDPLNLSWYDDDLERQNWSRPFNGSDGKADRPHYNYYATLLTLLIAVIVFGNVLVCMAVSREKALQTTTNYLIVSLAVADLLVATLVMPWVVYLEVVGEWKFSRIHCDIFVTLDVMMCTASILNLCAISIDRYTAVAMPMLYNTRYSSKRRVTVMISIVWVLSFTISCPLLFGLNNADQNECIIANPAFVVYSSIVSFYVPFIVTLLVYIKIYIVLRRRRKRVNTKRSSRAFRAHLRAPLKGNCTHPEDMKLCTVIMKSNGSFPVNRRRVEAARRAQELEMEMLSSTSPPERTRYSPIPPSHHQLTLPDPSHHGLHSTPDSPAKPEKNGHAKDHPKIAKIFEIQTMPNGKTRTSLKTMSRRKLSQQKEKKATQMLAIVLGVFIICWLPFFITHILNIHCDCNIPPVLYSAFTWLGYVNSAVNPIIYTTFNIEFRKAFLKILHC

The experiment concerns the target D(2) dopamine receptor (Homo sapiens) (UniProt P14416). In words: HTS Assay for Allosteric Antagonists of the Human D2 Dopamine Receptor: Primary Screen for Antagonists. Also: 0% is about no effect. The settings on record: HEK293 TREx D2 cells, calcium flux, dopamine EC80; at 10 µM; stronger effect = higher value. The method, boiled down:
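Tetracycline-induced HEK293 T-REx cells expressing D2 force-coupled to calcium signalling were dye-loaded, exposed to compound for 180 s, then challenged with an EC80 of dopamine; calcium flux was followed kinetically for a further 180 s.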
(In general: A change in cytosolic calcium serves as a functional read-out for many receptors and channels.)
The inhibition is the drop in the measured response relative to a control, in per cent. Turning to `Cc1ccccc1NC(=O)Cn1cc(C(=O)c2ccco2)c2ccccc21`, the inhibition was 2.35%.

As for `CCCN1CN(Cc2ccco2)c2nc3ccccc3n2C1`, the inhibition is active: 42.7%.

For `O=C(NCCc1ccccc1)c1ccc(CS(=O)Cc2ccc(Cl)cc2)o1` (centres undefined), the inhibition was 10.3%.

For the compound `COc1ccc(C(=O)c2c(N)c(-c3nc(-c4ccc5c(c4)OCO5)cs3)c3ccccn23)cc1`, the inhibition came out at 4.24%.

Take `Cc1cc(NC(=O)CCc2nc3cccnc3n2-c2ccccc2)ccc1Br`: the inhibition was -13.4%.

In the case of `CCOC(=O)c1ccc(NC(=O)Cn2nc3c4ccccc4n(Cc4cccc(F)c4)cc-3c2=O)cc1`, the inhibition was found to be 6.59%.

As for `O=C(CCn1c(=O)c2sccc2n(Cc2ccccc2F)c1=O)NCc1ccc2c(c1)OCO2`, the inhibition is 12.3%.

For `Cc1cccc(NC(=O)Cn2nc(-c3ccccc3)c3cnc4ccccc4c32)c1`, the inhibition amounted to 2.13%.

With `CCOc1ccc(-n2cc(-c3ccccc3)c3c(NCCc4ccccc4)ncnc32)cc1`, the inhibition came to 4.1%.

`Cc1ccc(Nc2ccc3cc(S(=O)(=O)N4CCC(C)CC4)ccc3n2)c(Cl)c1`: the inhibition was 2.93%.

As to `CCc1cccc(NC(=O)CCn2c(=O)c3cccn3c3cccnc32)c1`, the inhibition was 1.77%.

Take `CCOC(=O)N1CCc2c(sc3c2c(=O)n(Cc2ccccc2)c(=O)n3CC(=O)Nc2cccc(CC)c2)C1`: the inhibition was -10.5%.

Regarding `CCc1ccc2nc(N(Cc3cccnc3)C(=O)c3ccc(C#N)cc3)sc2c1`, the inhibition turned out to be 4.15%.

Turning to `Cc1ccc(N2CCN(C(=O)c3nn(C)c4c3CS(=O)(=O)c3ccccc3-4)CC2)c(C)c1`, the inhibition stood at 16.5%.

Take `CC(=O)Nc1ccc(NC(=O)c2oc3c(c2C)-c2nn(Cc4ccccc4Cl)cc2CC3)cc1`: the inhibition was -8.09%.

For the compound `CCCCC(=O)Nc1ccc2nc(SCC(=O)N3CCc4ccccc43)sc2c1`, the inhibition turned out to be 11.2%.

In the case of `COc1cc(SC)ccc1C(=O)Nc1ccc(S(=O)(=O)Nc2nccc(C)n2)cc1`, the inhibition came out at 14.4%.

In the case of `COc1cccc(N2CCN(C(=O)c3ccc(C)c(NC(=O)c4nsc5ccccc45)c3)CC2)c1`, the inhibition is -8.37%.

For `Cc1ccc(C(c2sc3nc(-c4ccco4)nn3c2O)N2CCCC2)cc1` (centres undefined), the inhibition was 10.3%.

Take `Cc1ccc(N(CC(=O)NCCc2ccc(Cl)cc2)S(=O)(=O)c2c(C)noc2C)cc1`: the inhibition was -2.29%.

With `COc1ccc(CN2CCc3c(c(=O)n4ncc(C(=O)N5CCN(c6ccccc6OC)CC5)c4n3C)C2)cc1`, the inhibition turned out to be 5.26%.

With `Cc1cccc(NC(=O)Cn2nnc(-c3nc(-c4ccncc4)no3)c2N)c1`, the inhibition turned out to be 6%.

Turning to `COc1c(O)cc2oc(-c3ccc(O)c(O)c3)cc(=O)c2c1O`, the inhibition is active: 36.2%.

As to `Cc1ccc(NC(=O)CN2C(=O)c3ccccc3Sc3ccc(C(=O)N4CCOCC4)cc32)cc1F`, the inhibition was -6.3%.

Turning to `COc1ccc(NC(=O)CN2C(=O)CCn3nc(-c4cccn4C)cc32)cc1Cl`, the inhibition is 2.56%.

`O=S(=O)(c1ccc(-c2cc(C(F)(F)F)on2)s1)N1CCN(c2ccccc2F)CC1`: the inhibition came out at 9.91%.

Take `CC(=O)Nc1nonc1-c1nnc(SCC(=O)Nc2ccc(C)cc2)n1-c1ccccc1`: the inhibition was -11%.

For the compound `COC(=O)c1ccccc1NC(=O)c1cc(-c2ccccc2O)no1`, the inhibition is 10.4%.

Take `Cc1cc(C(=O)Nc2ccc([N+](=O)[O-])cn2)cs1`: the inhibition was active: 30.5%.

`COc1ccc(-c2cc(-c3ccccc3)c(C#N)c(SCC(O)CS(=O)(=O)Cc3ccc(Cl)cc3)n2)cc1` (centres undefined): the inhibition stood at 2.32%.

For the compound `O=C(CS(=O)(=O)c1cccc2nsnc12)N1CCN(c2cccc(Cl)c2)CC1`, the inhibition was determined as 7.37%.

Take `CCOC(=O)c1sc2cccc(F)c2c1S(=O)(=O)NCc1ccccc1Cl`: the inhibition turned out to be 13%.

Take `CCCN1CCN(c2ncnc3sc(C(=O)Nc4ccc(C(C)C)cc4)c(C)c23)CC1`: the inhibition was -0.468%.

For the compound `CC(C)c1nn2c(=O)cc(COC(=O)c3ccc(NC(=O)COc4ccccc4)cc3)nc2s1`, the inhibition came out at 5.61%.

`O=C(NCCCN1CCN(c2ccccc2F)CC1)C1CCC(=O)N1C1CCCC1` (centres undefined): the inhibition was active: 66.4%.

Turning to `CCc1ccc(-n2c(=O)c3c4c(sc3n(CC(=O)c3ccc(F)cc3)c2=O)CCC4)cc1`, the inhibition was -15.8%.

As to `COc1ccc(-c2ccc3c(N)c(C(=O)c4ccc(OC)c(OC)c4)sc3n2)cc1`, the inhibition was 20.7%.

On to `CCC(C)NC(=O)CCCN1C(=O)CCn2nc(-c3cccn3C)cc21` (centres undefined), for which the inhibition is -12.5%.

As for `CCc1cccc(NC(=O)COC(=O)c2cn(CC)c3nc(C)ccc3c2=O)c1`, the inhibition was 9.55%.

On to `COc1ccc(CNC(=O)c2ccc(-c3nc(CSc4ccccc4)c(C)o3)cc2)cc1OC`, for which the inhibition came out at 12.4%.

As for `CSc1ccc(C#N)cc1NC(=O)c1ccccc1C`, the inhibition was active: 50.9%.

Take `COc1ccc(CNC(=O)CSCc2nc(-c3ccccc3C)oc2C)cc1`: the inhibition was determined as 16.8%.

Consider `CCCc1cc(=O)[nH]c(SCC(=O)N2CCN(c3ccccc3)CC2)n1`, for which the inhibition was 9.36% and active: 38.3%.

With `COc1ccccc1N1CCN(C2CCCN(C(=O)c3ccoc3C)C2)CC1` (centres undefined), the inhibition is active: 30.6%.

With `Cc1cccc(CCNC(=O)C2CCN(S(=O)(=O)c3c(C)nn(C)c3C)CC2)c1`, the inhibition is active: 32.3%.

As for `Cc1ccccc1CNC(=O)c1ccc2c(c1)c(C)c(C)n2C`, the inhibition turned out to be 11.7%.

Consider `CN(C)c1ccc(CNC(=O)c2ccc(Cn3c(SCc4ccccc4)nc4cccnc43)cc2)cc1`, for which the inhibition stood at 3.23%.

For `Cc1ccc(Cl)cc1NC(=O)C1CCN(c2nnc(C)c3c(C)n(-c4ccccc4)nc23)CC1`, the inhibition is 7.87%.

With `CCc1ccc(CNC(=O)c2cnc3sc(N4CCCC4)nn3c2=O)cc1`, the inhibition is -7.36%.

Turning to `Cc1ccccc1Cn1nnc2c(=O)[nH]c(C3CCN(C(=O)c4ccc(F)cc4)CC3)nc21`, the inhibition is -9.38%.

`Cc1cc(C)c(Cn2c3ccccc3c3cnn(CC(=O)NCc4cccs4)c(=O)c32)c(C)c1`: the inhibition is 7.63%.

For `Cc1cc(C)n(-c2nc3ccccc3nc2Nc2ccc(N(C)C)cc2)n1`, the inhibition is 0.194%.

In the case of `CCOC(=O)c1ccc(NC(=O)c2cnc3c(-c4ccc(F)cc4)c(C)nn3c2C)cc1`, the inhibition was -9.65%.

As to `COc1ccc(-n2nc(C(=O)Nc3ccccn3)c3c4ccccc4n(C)c3c2=O)cc1`, the inhibition stood at 6.18%.

As for `COc1ccccc1OC(C)C(=O)Nc1cccc(-c2nc3ccccc3s2)c1` (centres undefined), the inhibition is -9.44%.

Turning to `CCOc1ccc(-c2nc3c(c(SCC(=O)Nc4ccccc4C)n2)Cc2ccccc2O3)cc1`, the inhibition came to 11%.

As for `Cc1ccccc1NC(=O)CC(NCc1cccnc1)C(=O)O` (centres undefined), the inhibition is -8.36%.

`Cc1cc(C)cc(NC(=O)Cn2c(-c3cncs3)nc3ccccc32)c1`: the inhibition worked out at 1.56%.

As for `Cc1cccc(N(C)c2nc3ccccc3c3nnc(C)n23)c1`, the inhibition was 8.45%.

Turning to `Cc1ccccc1N1CCN(S(=O)(=O)c2nnc(NC(=O)c3ccc(C(C)C)cc3)s2)CC1`, the inhibition was determined as 6.02%.

On to `COC(=O)Cn1c(=O)c2cccn2c2ccc(F)cc21`, for which the inhibition was -5.2%.

For the compound `COc1cc(NC(=O)c2cc(C3CC3)nc3c2c(C)nn3-c2ccccc2)cc(OC)c1`, the inhibition was -6.59%.

In the case of `CCCCCn1c(NCc2ccc(OC)cc2)nc2ccccc21`, the inhibition is -0.0366%.

As for `O=C(NC1CCCC1)c1cc(-c2ccc(Cl)cc2Cl)on1`, the inhibition was active: 30.8%.

As to `Cc1ccc(C(=O)c2cn(CC(=O)Nc3ccc(C(C)C)cc3)c3nc(C)ccc3c2=O)cc1`, the inhibition came to 5.04%.

Consider `Cc1ccc(NC(=O)CSc2nnc(-c3ccc([N+](=O)[O-])cc3)o2)c(C)c1`, for which the inhibition was -11.1%.

Consider `O=C(COC(=O)C1=NN(c2ccccc2)C(=O)CC1)NCc1ccccc1Cl`, for which the inhibition is active: 31.5%.

On to `COc1cccc(NC(=O)Cn2nnc(C(=O)NCc3cccs3)c2N)c1`, for which the inhibition stood at 14.8%.

On to `COc1ccc(NC(=O)Cn2c(=O)n(-c3cc(C)cc(C)c3)c(=O)c3oc4ccccc4c32)cc1OC`, for which the inhibition was found to be 9.51%.

In the case of `Cc1ccc2c(CNCCc3ccccc3)c(C(=O)O)n(Cc3ccccc3C)c2c1`, the inhibition worked out at 5.45%.

Consider `O=C(NCCc1ccccc1)c1nn(-c2ccccc2F)nc1CO`, for which the inhibition was -5.19%.

For the compound `COCc1ccc(CN2CCC(C(=O)Nc3cccc(-c4cscn4)c3)CC2)o1`, the inhibition is active: 31.9%.

Take `CCCSC1=C(C#N)C(c2ccc(OC)cc2)C2=C(CC(C)(C)CC2=O)N1` (centres undefined): the inhibition was active: 41.7%.

Consider `CCOc1ccccc1NC(=O)c1c(NC(=O)COc2ccc(Cl)cc2)sc2c1CCCCC2`, for which the inhibition turned out to be 8.91%.

On to `CS(=O)(=O)N1CCc2cc(C(=O)N3CCN(c4cccc(Cl)c4)CC3)ccc21`, for which the inhibition was -12.2%.

Take `Cc1ccc(C)c(N2CCN(C(=O)c3cn(CC(C)C)c(=O)c4c3c3ccccc3n4C)CC2)c1`: the inhibition was found to be 6.11%.

As for `COc1ccc(Br)cc1C1C(C(=O)Nc2ccc(C)cc2C)=C(C)Nc2ncnn21` (centres undefined), the inhibition is -12.6%.

On to `Cc1ccc(C)c(CSc2nc(-c3ccccc3F)nc3c2Cc2c(CO)cnc(C)c2O3)c1`, for which the inhibition is -3.52%.

As for `COc1ccc(C)cc1NC(=O)c1noc2c1CSc1ccccc1-2`, the inhibition was -5.89%.

For the compound `COc1ccc(C2C(C(=O)Nc3ccccc3)=C(C)Nc3c(C(=O)Nc4ccccc4)cnn32)cc1` (centres undefined), the inhibition was determined as 11.1%.

For `CC(C)C(=O)Nc1nnc2n1CCS2`, the inhibition was -19.7%.

Consider `CCC(Cn1nnc2ccccc2c1=O)NC(=O)Nc1cc(C)cc(C)c1` (centres undefined), for which the inhibition was -0.293%.

With `Cc1cc2c(n1-c1ccc(C(=O)NCCc3ccc(Cl)cc3)cc1)CCCC2`, the inhibition is -5.75%.

Consider `Cc1nc(N2CCCC2)c2c(C(=O)N3CCN(c4ccccc4)CC3)c(C)oc2n1`, for which the inhibition came to 6.89%.

As to `CC(=O)N1CCCc2cc(S(=O)(=O)N3CCCC(C(=O)N4CCN(c5cccc(Cl)c5)CC4)C3)ccc21` (centres undefined), the inhibition is 4%.

With `CCOc1cc2sc(N3CCC(C(=O)Nc4ccc(CC)cc4)CC3)nc2cc1Br`, the inhibition was -6.83%.

In the case of `CCc1ccc(C(=O)c2cn(CC(=O)Nc3ccc(Cl)cc3)c3cc4c(cc3c2=O)OCO4)cc1`, the inhibition came out at 5.94%.

Turning to `CCOc1ccc(CNC(=O)c2cccc(NC(=O)N3CCSc4ncccc43)c2)cc1OC`, the inhibition worked out at 8.02%.

Take `Cc1ccc(S(=O)(=O)n2nc(C)c(S(=O)(=O)N3CCCCCC3)c2C)cc1`: the inhibition is -21.9%.

Consider `Cc1ccc(C)c(CSc2nnc3[nH]c(=O)cc(C)n23)c1`, for which the inhibition worked out at 7.07%.

As to `CC(C)c1nn2c(=O)cc(COC(=O)c3cccc(NC(=O)COc4ccc(F)cc4)c3)nc2s1`, the inhibition worked out at 11.8%.

For `CCc1ccc(C(=O)c2cn(CC(=O)Nc3ccc4c(c3)OCO4)c3ccc(CC)cc3c2=O)cc1`, the inhibition was -11.2%.

Take `Cc1cc2c(cc1S(=O)(=O)CCC(=O)N1CCC(C)CC1)OCC(=O)N2`: the inhibition worked out at 13.6%.

As to `Cc1ccc(NC(=O)C(Cc2c[nH]c3ccccc23)NC(=O)OC(C)(C)C)c(C)c1` (centres undefined), the inhibition was -22.8%.
